Assay results: PubChem BioAssay AID1645887 (National Center for Advancing Translational Sciences (NCATS), 2021)
“And” between values parts separate entries of the source, which are not always exact repeats. Equal entries are not always repeated. Out of some 16,000 compounds screened, about 40 (0.2%) were called active. Roughly 1% stayed inconclusive and do not appear here. Calls follow the shape of the dose curve; as a rule, active = well fitted activation curve with a large enough effect; inconclusive = small, poorly fitted or top-dose-only effect, or another doubt; inactive = no such curve, though single readings can be large or run the other way. This is one part of the list.
% is scaled to controls: 0 for no effect and ±100 for the full control effect.
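Also: exchange makes BODIPY-GDP fluorescence drop when released from Rap1B; series mostly up to about 150 µM.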

These molecules were tested against Rap guanine nucleotide exchange factor 4 (Homo sapiens) (UniProt Q8WZA2) (assay: Validation qHTS for agonist of cAMP-regulated guanine nucleotide exchange factor 4 (EPAC2)). Details: EPAC2 Rap1B BODIPY-GDP exchange, fluorescence; activation: stronger effect = higher value.
Chain of UniProt Q8WZA2 (Q8WZA2 whole entry, looked up): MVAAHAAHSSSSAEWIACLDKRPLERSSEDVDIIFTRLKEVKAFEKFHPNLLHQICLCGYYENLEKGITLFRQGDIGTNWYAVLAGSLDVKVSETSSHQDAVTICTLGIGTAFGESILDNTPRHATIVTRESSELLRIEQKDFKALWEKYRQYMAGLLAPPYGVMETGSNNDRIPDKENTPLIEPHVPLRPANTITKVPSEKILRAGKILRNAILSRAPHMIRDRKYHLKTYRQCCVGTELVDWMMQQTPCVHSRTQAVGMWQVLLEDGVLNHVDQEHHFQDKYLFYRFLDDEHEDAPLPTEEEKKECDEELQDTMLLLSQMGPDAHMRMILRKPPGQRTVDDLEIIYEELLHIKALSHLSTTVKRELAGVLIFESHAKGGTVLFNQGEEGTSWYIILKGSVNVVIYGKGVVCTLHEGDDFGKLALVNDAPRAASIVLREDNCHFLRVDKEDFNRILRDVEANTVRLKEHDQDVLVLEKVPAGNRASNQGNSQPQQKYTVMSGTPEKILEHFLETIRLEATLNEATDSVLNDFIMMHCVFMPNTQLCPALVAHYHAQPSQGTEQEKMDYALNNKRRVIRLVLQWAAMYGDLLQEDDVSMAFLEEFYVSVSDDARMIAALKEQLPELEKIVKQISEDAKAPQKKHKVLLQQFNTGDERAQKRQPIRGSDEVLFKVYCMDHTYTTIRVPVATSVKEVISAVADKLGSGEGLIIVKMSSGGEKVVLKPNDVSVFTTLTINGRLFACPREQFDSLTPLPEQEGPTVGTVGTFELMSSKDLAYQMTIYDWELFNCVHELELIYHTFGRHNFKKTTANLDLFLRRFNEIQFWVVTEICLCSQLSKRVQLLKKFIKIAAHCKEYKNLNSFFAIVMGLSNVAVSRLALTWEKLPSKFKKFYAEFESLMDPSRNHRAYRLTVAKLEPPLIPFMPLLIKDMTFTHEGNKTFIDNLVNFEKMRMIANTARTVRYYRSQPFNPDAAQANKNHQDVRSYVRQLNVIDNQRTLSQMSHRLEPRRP
Procedure, shortened: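 Fluorescent exchange assay: 100 nM EPAC2 with 250 nM RAP1B-BODIPY-GDP and 50 uM GDP; compound added, 5 min at room temperature, then read (ex 480/em 540 nm) every 5 min for 30 min. Normalized to 6.5 mM cAMP agonist control.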
For `CCCCNC(C)(C)[P+](=O)O`, the activation was inactive: -6.54%.
In the case of `CC(C)C(Br)C(=O)NC(N)=O` (configuration not stated), the activation is reported as inactive: 1.37%.
With `CC(C)(C)NC[C@H](O)COc1cccc2[nH]c(C#N)cc12` the activation was inactive: 2.76%.
For `COP(=O)(OC)OC=C(Cl)Cl`, the activation was inactive: -18.9%.
In the case of `CC(=O)c1c(O)c(C)c(O)c(Cc2c(O)c3c(c(C(=O)/C=C\c4ccccc4)c2O)OC(C)(C)C=C3)c1O`, the activation is reported as inactive: -19.4%.
In the case of `COCC(=O)N1CCC2(CCCN(Cc3ccncc3)C2)CC1`, the activation is reported as inactive: -25.9%.
With `CCCN1CCc2cc(O)cc3c2C1Cc1ccc(O)c(O)c1-3` (configuration not stated) the activation was inactive: 8.25%.
With `S=C=NCc1ccccc1` the activation was inactive: -11.4%.
`C[C@]12CCC(=O)C=C1C=C[C@@H]1[C@@H]2CC[C@@]2(C)[C@H]1CC[C@@]2(O)CCC(=O)O` was tested, and the activation was inactive: -16.9%.
In the case of `[Cl-].[Cl-].[Hg+2]`, the activation is reported as inactive: -14.7%.
For `S=C(S)N1CCNCC1`, the activation was inactive: 4.81%.
For `C[C@]12N[C@@H](Cc3ccccc31)c1ccccc12`, the activation was inactive: -23% and inactive: -6.56%.
With `NC(=O)CI` the activation was inactive: -21.7%.
`CN1CCC(O)(c2ccc(F)cc2)C(C(=O)c2ccc(F)cc2)C1` (configuration not stated) was tested, and the activation was inactive: 5.78%.
`CCOP(=S)(OCC)SCn1c(=O)oc2cc(Cl)ccc21` was tested, and the activation was inactive: 6.23%.
With `Cc1cccc(C)c1NC(=O)CN1CCCC1=O` the activation was inactive: -14%.
`CS(=O)(=O)Nc1ccc(Cc2noc(-c3ccc4[nH]cc(CCN)c4c3)n2)cc1` was tested, and the activation was inactive: 8.63% and inactive: -5.38%.
With `CC(C)C[C@H]1C(=O)N2CCCC2[C@]2(O)O[C@](NC(=O)[C@@H]3C=C4c5cccc6[nH]cc(c56)CC4N(C)C3)(C(C)C)C(=O)N12` (some centres not stated) the activation was inactive: -39.3%.
For `c1ccc(N2CCCC3(CCNCC3)C2)nc1`, the activation was inactive: -5.49%.
With `O=C(O)COc1ccc(Cl)cc1Cl` the activation was inactive: -8.76%.
In the case of `CC(C)C[C@H](NC(=O)[C@H](Cc1ccccc1)NC(=O)CNC(=O)[C@H](CO)NC(=O)[C@@H](N)Cc1ccc(O)cc1)C(=O)N[C@H](C(=O)O)[C@H](C)O`, the activation is reported as inactive: 9.65%.
For `CCNc1nc(Cl)nc(NCC)n1`, the activation was inactive: -21.1%.
`c1ccc2sc(C3(NCC4CC4)CCCCC3)cc2c1` was tested, and the activation was inactive: 1.14%.
In the case of `C=CCC1=C(C)C(OC(=O)C2C(C=C(C)C)C2(C)C)CC1=O` (configuration not stated), the activation is reported as inactive: -30.2%.
`CCC1(c2ccccc2)C(=O)NC(=O)NC1=O` was tested, and the activation was inactive: -4.98%.
`COc1ccc2[nH]c3c(c2c1)CCNC3` was tested, and the activation was inactive: 18.7%.
For `C/C=C1/CN2CC[C@]34C(=C(C=O)[C@@H]1C[C@H]23)Nc1c(O)cccc14`, the activation was inactive: -17.6%.
In the case of `CCN(CC)C(=O)N[C@@H]1C=C2c3cccc4[nH]cc(c34)C[C@@H]2N(C)C1`, the activation is reported as inactive: 18.8%.
With `COc1cc(CC(C)N)c(OC)cc1I` (configuration not stated) the activation was inactive: -19.9%.
For `CN1CCN(c2ncc3ncc(=O)n(C)c3n2)CC1`, the activation was inactive: -13.4%.
In the case of `O=C(O)C1=CCCN(CCOC(c2ccc(C(F)(F)F)cc2)c2ccc(C(F)(F)F)cc2)C1`, the activation is reported as inactive: -51.8%.
For `CCCCC/C=C\C/C=C\CCCCCCCC(=O)NCCO`, the activation was inactive: -17.5%.
In the case of `O=C(CCl)c1ccc(Cl)cc1Cl`, the activation is reported as inactive: 13.7% and inactive: -7.13%.
`C#C[C@]1(O)CC[C@H]2[C@@H]3CCC4=CC(=O)CCC4=C3C=C[C@@]21CC` was tested, and the activation was inactive: -24.4%.
For `CCC1(c2ccccc2)C(=O)N(COC)C(=O)N(COC)C1=O`, the activation was inactive: -9.02%.
For `O=C1/C(=C\c2ccccc2)C[C@@]2(O)[C@H]3Cc4ccc(O)c5c4[C@@]2(CCN3CC2CC2)[C@@H]1O5`, the activation was inactive: -21.8%.
In the case of `O=[N+]([O-])C(Br)(CO)CO`, the activation is reported as inactive: -15.4%.
With `ClC(Cl)=C(c1ccc(Cl)cc1)c1ccc(Cl)cc1` the activation was inactive: -22.2%.
For `CCOC(=O)C1C(C=C(C)C)C1(C)C` (configuration not stated), the activation was inactive: -2.82%.
With `CCCCC/C=C\C/C=C\C/C=C\C=C\[C@H](CCCC(=O)O)OO` the activation was inactive: -9.15%.
For `Oc1ccc2c3c1OC1C(O)CC[C@]4(O)C(C2)N(CC2CCC2)CC[C@]314` (some centres not stated), the activation was inactive: -9.68%.
In the case of `C[N+](C)(C)CCOC(=O)CBr`, the activation is reported as inactive: 9.33% and inactive: -22%.
With `Cc1sc2ccccc2c1CC1=NCCN1` the activation was inactive: -3.15%.
For `CC(=O)[C@H]1CC[C@H]2[C@@H]3CC[C@H]4C[C@](C)(O)CC[C@]4(C)[C@H]3CC[C@]12C`, the activation was inactive: -9.07% and inactive: -63.8%.
`NC1=NC(=O)C(c2ccccc2)O1` (configuration not stated) was tested, and the activation was inactive: -15.7%.
For `CCOC(=O)C1(c2ccccc2)CCN(CCC(C#N)(c2ccccc2)c2ccccc2)CC1`, the activation was inactive: 12.9% and inactive: 9.47%.
`CN(C)CCc1ccc(O)cc1` was tested, and the activation was inactive: 1.09% and inactive: -14.3%.
`C=CC(=O)NCNC(=O)C=C` was tested, and the activation was inactive: -12.5%.
With `O=C(Oc1ccccc1)N1CCC2(CCCN(Cc3nccs3)C2)CC1` the activation was inactive: -14.3%.
`Cn1cccc1-c1cccnc1` was tested, and the activation was inactive: -4.26%.
`CCCCCCC(C)(C)c1ccc([C@@H]2C[C@H](O)CC[C@@H]2CCCO)c(O)c1` was tested, and the activation was inactive: -42.2%.
`CC(=O)OC1CC2C(C)(C)C(O)C=C[C@@]2(C)C2CC[C@]3(C)C(=CC(=O)OC3c3ccoc3)[C@]12C` (some centres not stated) was tested, and the activation was inactive: -3.95%.
For `CCOP(=S)(OCC)O/N=C(\C#N)c1ccccc1`, the activation was inactive: -7.89%.
For `C=CCN1CC[C@]23c4c5ccc(O)c4O[C@@H]2C(=O)CC[C@]3(O)[C@H]1C5`, the activation was inactive: 1.95%.
For `N[C@@H]1C[C@H]1c1ccccc1`, the activation was inactive: -3.18%.
In the case of `CC(C)NCC(O)c1ccc([N+](=O)[O-])cc1` (configuration not stated), the activation is reported as inactive: -8.47%.
For `CCC(Sc1ccccc1)C(=O)OC1CC2CCC(C1)N2C` (configuration not stated), the activation was inactive: 11.1%.
In the case of `COC(=O)[C@]1(C)CC[C@@]2(C)CC[C@@]3(C)C4=CC=C5C(=CC(=O)C(O)=C5C)[C@@]4(C)CC[C@@]3(C)C2C1` (some centres not stated), the activation is reported as inactive: -27.3%.
In the case of `C[C@H](N)Cc1c[nH]c2ccc(O)cc12`, the activation is reported as inactive: -5.24%.
For `CNc1ccccc1C(=O)O`, the activation was inactive: -22.8%.
`CN(C(=O)Cc1ccc(Cl)c(Cl)c1)[C@@H](CN1CCCC1)c1cccc(OCC(=O)O)c1` was tested, and the activation was inactive: 3.86%.
In the case of `COc1nn(CSP(=S)(OC)OC)c(=O)s1`, the activation is reported as inactive: 11.8%.
`NC(N)=Nc1ccc2[nH]c3c(c2c1)C[C@]1(O)[C@@H]2Cc4ccc(O)c5c4[C@]1(CCN2CC1CC1)[C@@H]3O5` was tested, and the activation was inactive: -21.3%.
With `CC(Cc1ccccc1)NCCn1cnc2c1c(=O)n(C)c(=O)n2C` (configuration not stated) the activation was inactive: 0.147%.
`O[C@H]1[C@H](O)[C@@H](O)CN2CC[C@H](O)[C@H]12` was tested, and the activation was inactive: -1.3%.
In the case of `CC1(C)C2C[C@@H](O)[C@]3(C)C(CC[C@@]4(C)[C@H](c5ccoc5)C[C@H]5O[C@]543)[C@@]2(C)[C@@H](O)C[C@H]1O` (some centres not stated), the activation is reported as inactive: -15.9%.
For `CC(C)NC(=O)N1CC[C@@]2(CCCNC2)C1`, the activation was inactive: -10.2%.
In the case of `CN1C[C@@H](CO)C=C2c3cccc4[nH]cc(c34)CC21` (some centres not stated), the activation is reported as inactive: 6.12%.
With `C[C@]12CCC3C(CC[C@]4(O)C[C@@H](O)CC[C@]34C=O)[C@@]1(O)CC[C@@H]2C1=CC(=O)OC1` (some centres not stated) the activation was inactive: -19.3%.
With `O=C(CC[N+](=O)[O-])OCC1OC(O)C(OC(=O)CC[N+](=O)[O-])[C@@H](OC(=O)CC[N+](=O)[O-])C1OC(=O)CC[N+](=O)[O-]` (some centres not stated) the activation was inactive: -12.9%.
`CC1(C)C(O)CC(O)[C@]2(C)C1CC(O)[C@]1(C)C2CC[C@@]2(C)C(c3ccoc3)CC3OC312` (some centres not stated) was tested, and the activation was inactive: -30.4%.
For `Cn1c(CCCC(=O)O)nc2cc(N(CCCl)CCCl)ccc21`, the activation was inactive: -8.42%.
For `COC1=CC=C2[C@H]3Cc4ccc(OC)c5c4[C@@]2(CCN3C)[C@H]1O5`, the activation was inactive: -19.8% and inactive: -6.03%.
In the case of `CN1CCc2cc(O)cc3c2C1Cc1ccc(O)c(O)c1-3` (configuration not stated), the activation is reported as inactive: -14.6%.
`NC(CP(=O)(O)O)C(=O)O` (configuration not stated) was tested, and the activation was inactive: 3.11% and inactive: -16.1%.
In the case of `C=CCN1CC[C@]23c4c5ccc(O)c4O[C@H]2[C@@H](O)C=C[C@H]3[C@H]1C5`, the activation is reported as inactive: -13.6%.
With `CN1CCc2cc(O)cc3c2[C@H]1Cc1ccc(O)c(O)c1-3` the activation was inactive: -24.9%.
`CN[C@@H](C)Cc1ccccc1` was tested, and the activation was inactive: -12.1%.
In the case of `O=C1Nc2ccc(Cl)cc2C(c2ccccc2Cl)=NC1O` (configuration not stated), the activation is reported as inactive: -14.3%.
With `C=C(C)[C@H]1CN[C@H](C(=O)O)[C@@H]1CC(=O)O` the activation was inactive: -16.1%.
With `Clc1cncc(N2CCNCC2)n1` the activation was inactive: -17.4% and inactive: -12.5%.
In the case of `CC(=O)OC1(c2ccccc2)CCN(CCc2ccccc2)CC1`, the activation is reported as inactive: -20.8%.
`CCN(CC)CCc1c[nH]c2ccccc12` was tested, and the activation was inactive: -3.73%.
For `CC(C)(C)c1o[nH]c(=O)c1C[C@H](N)C(=O)O`, the activation was inactive: -11.8%.
For `COC1CC(=C(c2cccs2)c2cccs2)C[N+](C)(C)C1` (configuration not stated), the activation was inactive: 2.79%.
For `CN1CCN(C(=O)O[C@H]2c3nccnc3C(=O)N2c2ccc(Cl)cn2)CC1`, the activation was inactive: -3.07%.
`O=C(Cc1ccc(Cl)c(Cl)c1)N1CCCC[C@H]1CN1CCCC1` was tested, and the activation was inactive: -5.33%.
In the case of `Oc1ccc2[nH]cc(CCCCN3CC=C(c4ccccc4)CC3)c2c1`, the activation is reported as inactive: -17.2%.
In the case of `NC(=O)c1cc([N+](=O)[O-])cc([N+](=O)[O-])c1`, the activation is reported as inactive: -20.7%.
For `COc1ccc2c(c1O)-c1c(OC)c(OC)cc3c1[C@H](C2)N(C)CC3`, the activation was inactive: -1.13%.
For `O=CN1CCCCC1C1CC[C@H]2CCCCN2C1` (some centres not stated), the activation was inactive: -4.68%.
For `c1ccc2sc(C3(N4CCCC4)CCCCC3)cc2c1`, the activation was inactive: -5.9%.
